Reference: patent US8003595B2, “Amino acid sequences facilitating penetration of a substance of interest into cells and/or cell nuclei” (Cellectis, priority 2000, dated 2011)
pKd: −log10 of the molar value. Read-outs that look alike come from different tables or passages of the source. Not every detail of the peptide structures is certain; ends, links or a residue may be inferred. Some entries share one result that the patent states for a list of compounds. Where no end group is shown, it is not given here.

Experiments:
[1] = ELISA fixation of biotinylated peptides on sensitized plates; format: binding
Description: The capacity of peptides SEQ ID NO: 1 to 21 to attach themselves to DNA and heparin is evaluated on ELISA plates sensitized with DNA or heparin. Dilutions of biotinylated peptides are deposited on the plates and their fixation is shown using streptavidin conjugated with peroxidase. […] The avidity of each of the peptides for DNA or heparin is evaluated by the quantity (×10^−6 M) of peptides necessary to obtain 50% fixation.

[2] = as above; format: binding; conditions: read-out: avidity (Kd), quantity of peptides necessary to obtain 50% fixation, Chondroitin C; Table 5
HeLa = experiment: Internalization of covalent peptide-peroxidase conjugates; format: cell-based, human; conditions: 2 hours
Description: (§1) To evaluate more directly the penetration of the peptides, avoiding the avidin-peroxidase bias, some of the peptides in sequences SEQ ID NO: 25 to 48 were conjugated covalently with cysteine in the C-terminal position of the peptide to peroxidase. The peptides were coupled with peroxidase in the following way:
(§2) One mg of peroxidase activated with maleimide (Sigma) in 100 μl of sodium phosphate buffer, NaCl 0.15 M, EDTA 5 mM, had 1 mg of peptide added to it. After 2 hours at laboratory temperature, β-mercaptoethanol is added to a final concentration of 1.5 mM for 15 minutes. The uncoupled peptide is eliminated by centrifugation on ultrafiltration membranes (cut-off threshold=30,000 Daltons, Sartorius), followed by three washings in sodium phosphate buffer 0.1 M, pH 7.4 containing 0.15 M NaCl.
(§3) It appears that the higher the concentration of peptide-peroxidase conjugate in the culture medium, the more the quantity internalized increases. To compare the penetration of the conjugates by cell type, the cells from different lines were incubated with 0.2 μg/ml of peptide-peroxidase conjugate for 2 hours, and the quantity of peroxidase dosed in the lysates. Table 9 and Table 9B below give the results expressed in pg/10^3 cells. The quantity of each peptide internalized in the different lines generally varies only from single to double.

3T3 = experiment: as above; format: cell-based, mouse; conditions: 2 hours
Description: as §1, §2, §3

H1299 cells [3] = experiment: as above; format: cell-based, human; conditions: 2 hours
Description: as §1, §2
The H1299 cells are incubated for 2 hours with the conjugates at increasing concentrations of peptide-peroxidase in the culture medium, then washed with PBS. The cells are lysed and the quantity of peptide internalized is evaluated by the dosage of peroxidase in the lysate of the cells with reference to a curve established with peptide-peroxidase.
The quantity of peptide internalized (pg/10^3 cells), depending on the concentrations of conjugates in the culture medium, is shown in Table 8 below.
as §3

[4] = ELISA fixation of biotinylated peptides on sensitized plates; format: binding; conditions: read-out: avidity (Kd), quantity of peptides necessary to obtain 50% fixation, Chondroitin B; Table 5
[5] = as above; format: binding; conditions: read-out: avidity (Kd), quantity of peptides necessary to obtain 50% fixation, Chondroitin A; Table 5
3T3 cells = experiment: Heparin inhibition of internalization of peptide-peroxidase conjugates; format: cell-based, mouse
Description: (§4) a) Heparin (50 μg/ml) was incubated with the cells for 1 hour before adding the peptide-peroxidase conjugates at 0.2 μg/ml for 2 hours. The cells were then lysed and the peroxidase dosed.
(§5) The quantity of heparin necessary to inhibit 50% penetration of the peptides coupled to peroxidase was evaluated with these two types of cells, by incubating the cells with the peptide-peroxidase conjugates with increasing concentrations of heparin. The results of inhibiting internalization of the peptides are expressed as the heparin concentration (μg/ml) in Table 2 below.

H1299 cells [6] = experiment: Inhibition of peptide-peroxidase internalization by drugs or 4° C.; format: cell-based, human; conditions: peptide-peroxidase 0.2 μg/ml, 2 hours
Description: To understand the biological mechanisms whereby the peptides penetrate into the cells and their compartmentalization, experiments are done with drugs whose action on certain cell compartments is specific. The peptide-peroxidases were incubated with H1299 cells at a concentration of 0.2 μg/ml for 2 hours in the presence, or not, of a drug. The cells were lysed, and the peroxidase dosed in the cellular lysate.

HH9 tumors = format: in vivo, nude mice; conditions: peritumoral injection twice a week from day 9; day 26; 6 mice
Description: The nude mice received subcutaneous transplants of HH9 tumor cells as described above. On day 9 after the transplant, the mice received twice a week, by peritumoral injection, 100 μg of RNase, or 65 μg of peptide (HBP3)2 or 65 μg of peptide (HBP3)2+100 μg of RNase, or 100 μg of peptide conjugate (HBP3)2-RNase or HBP6-RNase conjugate. On day 26, the mice were killed and their tumors weighed.

HeLa cells = experiment: Heparin inhibition of internalization of peptide-peroxidase conjugates; format: cell-based, human
Description: as §4, §5

[7] = summary in text over heparin and chondroitin sulfates A, B and C, read-out: avidity for both heparin and the 3 chondroitins
[8] = read-out: avidity (Kd), quantity of peptides necessary to obtain 50% fixation, Heparin, Table 5

Sequence	pKd [1, 7]	pKd [2]	Internalization of Peptide-peroxidase (HeLa; Table 9, 0.2 μg/ml conjugate) [pg/10^3 cells]	pKd [1, 8]	Internalization of Peptide-peroxidase (3T3; Table 9, 0.2 μg/ml conjugate) [pg/10^3 cells]	Internalization of Peptide-peroxidase (H1299 cells [3]; Table 9, 0.2 μg/ml conjugate) [pg/10^3 cells]	pKd [4]	pKd [5]	other results
AKTGKRKRSG [SEQ ID NO: 36]	< 7.00	–	–	–	–	–	–	–	–
GLKKNGSCKRGPR [SEQ ID NO: 33]	< 7.00	–	–	–	–	–	–	–	pKd ([1]; read-out: avidity (Kd), quantity of peptides necessary to obtain 50% fixation, Heparin, Table 5, listed as HBP8): < 7.00
KHLKKHLKKHLK [SEQ ID NO: 38]	7.30 to 7.34	7.80	4.1	7.25	18.1	9.1	7.42	7.25	–
QGKSKREKKDRVF [SEQ ID NO: 37]	< 7.00	–	–	–	–	–	–	–	–
SERKKRRRESRKKRRRES [SEQ ID NO: 26]	–	8.22	14.9	7.70	41	27.8	7.37	7.29	heparin concentration necessary to inhibit 50% penetration of the peptides coupled to peroxidase (3T3 cells): 14.5 µg/mL; Internalization of Peptide-peroxidase (HeLa; Table 9B, 0.2 μg/ml conjugate): 11.4 pg/10^3 cells; Internalization of Peptide-peroxidase (3T3; Table 9B, 0.2 μg/ml conjugate): 72.9 pg/10^3 cells; percentage inhibition of peptide internalization (H1299 cells [6]; Ammonium chloride (50 mM)): 76%; percentage inhibition of peptide internalization (H1299 cells [6]; Chloroquin (100 μM)): 82%; percentage inhibition of peptide internalization (H1299 cells [6]; Genistein (200 μM)): 59%; percentage inhibition of peptide internalization (H1299 cells [6]; Sodium chloride (80 mM)): 51%; percentage inhibition of peptide internalization (H1299 cells [6]; Temperature (4° C.)): 100%; Internalization of Peptide-peroxidase (H1299 cells [3]; Table 9B, 0.2 μg/ml conjugate): 67.4 pg/10^3 cells; Average weight of tumors (HH9 tumors): 1560 mg; heparin concentration necessary to inhibit 50% penetration of the peptides coupled to peroxidase (HeLa cells): 8.5 µg/mL
YRSRKYSSWYYALKR [SEQ ID NO: 34]	7.30 to 7.34	–	–	–	–	–	–	–	–
